Laboratory results: the RNAGym collection of RNA variant scans (doi:10.1093/nar/gkz1192)
The source gives no read counts; variants with many changes may rest on few reads.

B1: CPEB3 Ribozyme (parent)
chain: UAACAGGGGGCCACAGCAGAAGCGUUCACGUCGCAGCCCCUGUCAGAUUCUGGUGAAUCUGCGAAUUCUGCUGUAUAUCUC

Variants of: B1
Test: self-cleavage, relative activity (ratio to wild type); higher = more cleavage; in vitro, sequencing
How it was run: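 Barcoded CPEB3 ribozyme mutants, produced by rounds of error-prone PCR, self-cleaved while being transcribed with T7 RNA polymerase for 5 hours at 37°C and during a subsequent 15 min DNase I step before EDTA was added. Sequencing of template-switched cDNA on Illumina gave cleaved and total reads, and DNA sequencing assigned barcodes to variants. Each variant's relative activity is its cleaved/total read fraction divided by the unmutated ribozyme's fraction, averaged across three batches. A variant needed a minimum of 5 reads.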
C14U A35G U58A U74G showed a self-cleavage of 1.29.
Work on C14U A35U U41C U60C A77U yielded a self-cleavage of 0.35.
In the case of C14U A45G A57G, the self-cleavage is reported as 1.02.
With C14U A45G A75G U80C the self-cleavage was 1.03.
C14U A45U U51C A64G U80A gave a self-cleavage of 0.12.
For C14U A47G U80A, the self-cleavage was 1.07.
Work on C14U C23G A65G U74A yielded a self-cleavage of 0.08.
Variant C14U C23G U26C A47U U60C A64G U80A has a self-cleavage of 0.06.
For C14U C34A A35U U41C U51A U54A U72C, the self-cleavage was 0.12.
C14U C40G A65G U80C gave a self-cleavage of 0.06.
C14U G16A U25C A28U A75G showed a self-cleavage of 0.23.
In the case of C14U G19C G53A U78A, the self-cleavage is reported as 0.07.
C14U G19U A21G U43C U67G U69C showed a self-cleavage of 0.2.
Work on C14U G24U U43C G46U U54A C68A yielded a self-cleavage of 0.08.
Variant C14U G30A U69A A77G has a self-cleavage of 0.2.
Work on C14U G36A G53U yielded a self-cleavage of 0.3.
C14U U25A G33A U48C U51C U76C showed a self-cleavage of 0.1.
Work on C14U U25A U41C G52U A65G U72C yielded a self-cleavage of 0.08.
In the case of C14U U25C G63U, the self-cleavage is reported as 0.4.
Work on C14U U25C U41A A45U U60C A75C yielded a self-cleavage of 0.07.
With C14U U26C U80G the self-cleavage was 1.03.
C14U U43C U58C showed a self-cleavage of 0.16.
For C14U U48C U49C U51A, the self-cleavage was 0.12.
Work on C14U U48C U67G yielded a self-cleavage of 0.15.
Work on C14U U49C A56G yielded a self-cleavage of 1.25.
Variant C14U U49C U60G A64U U69C has a self-cleavage of 0.11.
C14U U51A U54C gave a self-cleavage of 1.24.
C14U U51C U67C showed a self-cleavage of 0.32.
Variant C14U U51G U67C has a self-cleavage of 0.14.
C14U U60C U69A gave a self-cleavage of 0.09.
In the case of C14U U72A A77G, the self-cleavage is reported as 1.2.
In the case of A15C A18G U26A A57G, the self-cleavage is reported as 0.45.
In the case of A15C A18U U43C U69A, the self-cleavage is reported as 0.89.
Work on A15C A20G A64G yielded a self-cleavage of 0.5.
Variant A15C A20G C29A A45G has a self-cleavage of 0.25.
Work on A15C A20G C29U A56G yielded a self-cleavage of 0.08.
Work on A15C A20U C37U U41A C62G A64G U74G yielded a self-cleavage of 0.03.
In the case of A15C A20U C39G A47G U54C, the self-cleavage is reported as 0.25.
Variant A15C A21G C40A A77G has a self-cleavage of 0.39.
Work on A15C A21G G30A U49A U51C U67C yielded a self-cleavage of 0.06.
With A15C A21G G70C the self-cleavage was 0.07.
A15C A21G U26A C32U gave a self-cleavage of 0.29.
For A15C A21G U26A U51A, the self-cleavage was 0.45.
A15C A21G U60C U67A U76C U78C gave a self-cleavage of 0.08.
Variant A15C A28G U31G C39U U48C A57G U60C has a self-cleavage of 0.
With A15C A35U U60C U74C the self-cleavage was 0.07.
In the case of A15C A47G U60G, the self-cleavage is reported as 0.17.
Work on A15C A56C U80C yielded a self-cleavage of 0.41.
For A15C A56G A64G, the self-cleavage was 0.72.
A15C A65U U78C gave a self-cleavage of 0.27.
Variant A15C C17U U31C U41C A56G A64U U80A has a self-cleavage of 0.09.
With A15C C23U C37U A47G A56G U69G the self-cleavage was 0.08.
A15C C38A U69A gave a self-cleavage of 0.23.
Variant A15C G19C A65G U69A U72A has a self-cleavage of 0.07.
A15C G22U U31A U54C A77G gave a self-cleavage of 0.18.
With A15C G24A U26A A35U the self-cleavage was 0.18.
For A15C U25C U72C A77G, the self-cleavage was 0.1.
Work on A15C U26A A28G U31C yielded a self-cleavage of 0.13.
A15C U26C U49C G63A U74G U78A gave a self-cleavage of 0.05.
Work on A15C U31A U72C U78A U80C yielded a self-cleavage of 0.91.
In the case of A15C U31C U43A U54A U78A, the self-cleavage is reported as 0.75.
A15C U43C U54C A56U U66C gave a self-cleavage of 0.14.
With A15C U43C U67C the self-cleavage was 0.15.
For A15C U49C G73U, the self-cleavage was 0.28.
In the case of A15C U51A A65G, the self-cleavage is reported as 0.5.
A15C U51C U67A showed a self-cleavage of 0.3.
Variant A15C U60A A77U has a self-cleavage of 0.2.
Variant A15C U72A U80C has a self-cleavage of 1.09.
Work on A15C U74A U76C yielded a self-cleavage of 0.81.
In the case of A15G A18C A65C, the self-cleavage is reported as 0.11.
For A15G A18C U25C A65C, the self-cleavage was 0.22.
A15G A18C U43A U48C U58A gave a self-cleavage of 0.11.
Variant A15G A18G A21U C59G U60C has a self-cleavage of 0.36.
With A15G A18G A35U A57G the self-cleavage was 0.18.
In the case of A15G A18G A35U U48C A57C G61A A64U, the self-cleavage is reported as 0.11.
In the case of A15G A18G A35U U74C, the self-cleavage is reported as 0.1.
Variant A15G A18G A45G A56G has a self-cleavage of 0.09.
A15G A18G A47G G55A showed a self-cleavage of 0.13.
A15G A18G A64G U78C gave a self-cleavage of 0.39.
With A15G A18G C34G U54A U78G the self-cleavage was 0.38.
Variant A15G A18G G33U has a self-cleavage of 0.49.
A15G A18G G36A gave a self-cleavage of 0.07.
A15G A18G U25C A64U A75G A77G gave a self-cleavage of 0.
